Laboratory results reported in PubChem BioAssay AID1476 (National Center for Advancing Translational Sciences (NCATS), 2009).
Several values for one entry are separate records, joined by “and”; a condition that tells them apart may be missing. Equal entries are not always repeated. About 4,500 (2.2%) of roughly 200,000 compounds were called active. This list was built around the results that the source calls inconclusive (neither active nor inactive); the mix of calls is not that of the screen. Calls follow the shape of the dose curve; as a rule, active = well fitted inhibition curve with a large enough effect; inconclusive = small, poorly fitted or top-dose-only effect, or effect the other way; inactive = flat fitted curve, though single readings scatter. A potency beside an inconclusive call is a rough fit, not a confirmed value.

The molecules below were run against Cruzipain (Trypanosoma cruzi) (UniProt P25779) (assay: qHTS Assay for Promiscuous and Specific Inhibitors of Cruzain (without detergent)). Settings: purified cruzain, Z-FR-AMC fluorescence, no detergent.
Procedure, shortened: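 Detergent-free condition (0.00005% Triton X-100) in acetate buffer pH 5.5 with DTT. 1.5 nM enzyme and compound were pre-mixed 15 min, then 2 uM Z-FR-AMC substrate added; reaction progress from fluorescence change between first and third reads (60 s).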
Also: nearly all actives have a fitted effect of over 40% in size.
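For max response, negative = inhibition in this document: plate controls were enzyme without inhibitor for no effect and buffer without enzyme for full effect.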
Potency is read from the fitted curve at half-maximal effect; tags tell the direction and shape of the fitted curve.

Chain of UniProt P25779 (P25779 whole entry, looked up): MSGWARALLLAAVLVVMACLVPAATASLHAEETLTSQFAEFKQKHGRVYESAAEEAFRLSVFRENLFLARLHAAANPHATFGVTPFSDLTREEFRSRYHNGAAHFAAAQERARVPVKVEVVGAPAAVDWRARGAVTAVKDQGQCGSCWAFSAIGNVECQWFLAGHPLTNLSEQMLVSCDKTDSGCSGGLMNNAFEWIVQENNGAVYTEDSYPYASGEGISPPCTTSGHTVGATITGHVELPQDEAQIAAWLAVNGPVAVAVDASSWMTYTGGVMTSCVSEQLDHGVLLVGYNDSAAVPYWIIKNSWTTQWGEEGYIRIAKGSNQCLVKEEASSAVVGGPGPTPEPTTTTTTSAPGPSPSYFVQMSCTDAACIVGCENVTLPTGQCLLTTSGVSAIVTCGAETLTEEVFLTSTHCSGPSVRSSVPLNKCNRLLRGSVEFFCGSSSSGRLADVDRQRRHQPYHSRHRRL

| Compound | Potency | max response, negative = inhibition |
| --- | --- | --- |
| CCN(CC)S(=O)(=O)c1ccc(-c2nnc(SCC(=O)N3c4ccccc4CC3C)n2CC)cc1 (stereo not drawn) | inconclusive: 39.8 µM [activator, single point] |  |
| CCOC(=O)c1c(NC(=O)C2=C(C)NC(=S)NC2c2ccc(CC)cc2)sc(C)c1C (stereo not drawn) | active: 10 µM |  |
| Cc1nn(-c2ccccc2)c2ncc(C(=O)c3cc(Cl)ccc3O)cc12 | inconclusive: 25.1 µM [inhibitor, single point] |  |
| O=c1[nH]c2cc(Cl)c(Cl)cc2[nH]c1=O | inconclusive: 39.8 µM [inhibitor, single point] |  |
| CCC(C)(C)n1nnnc1C(c1cc2ccc(OC)cc2[nH]c1=O)N1CCc2ccccc21 (stereo not drawn) | inconclusive: 31.6 µM [activator, single point] |  |
| COc1ccc(-c2cc(C(F)(F)F)nc(-n3ccnc3C)n2)cc1 | inconclusive: 31.6 µM [activator, partial curve] |  |
| O=C(Nc1cccc(-c2nc3ccccc3o2)c1)c1cc([N+](=O)[O-])ccc1N1CCOCC1 | inconclusive: 39.8 µM [inhibitor, single point] |  |
| CN(Cc1ccco1)c1ncncc1-c1cccc(NS(C)(=O)=O)c1 |  | inactive: 15.5% |
| CCOC(=O)c1sc(NC(=O)CSc2nc3c(cc2C#N)CCCCC3)c(C#N)c1C | inconclusive: 39.8 µM [inhibitor, single point] |  |
| COc1ccc(CNC(=O)c2c(Nc3ccc(OC)cc3OC)sc(C(=O)c3ccc(Cl)cc3)c2N)cc1 | active: 12.6 µM |  |
| CCOC(=O)c1c(-c2ccccc2Cl)csc1NC(=O)CSc1nc(C)cc(=O)[nH]1 | inconclusive: 7.94 µM [inhibitor, full curve] |  |
| COc1ccc(-c2cc(-c3cccs3)c(C#N)c(SCC(=O)NCc3ccccc3OC)n2)cc1 | inconclusive: 5.01 µM [inhibitor, full curve, poor fit] |  |
| COc1ccc(-c2cc(C(F)(F)F)nc(SCC(=O)N(C)Cc3ccccc3)n2)cc1OC | inconclusive: 15.8 µM [activator, partial curve] |  |
| Cc1cccc(N/N=C/c2ccccc2O)c1 | inconclusive: 31.6 µM [inhibitor, single point] |  |
| Cc1ccc(OCC(=O)N/N=C\c2c(C)n(C)c3ccccc23)c([N+](=O)[O-])c1 | inconclusive: 25.1 µM [activator, single point] |  |
| Cc1c(CNCc2ccc(OC(C)C)cc2)c(C(=O)O)c(C)n1Cc1ccc(Cl)cc1 |  | inactive: -2.04% |
| COc1ccc(N(C(=O)c2ccccc2F)S(=O)(=O)c2ccc3c(c2)n(C)c(=O)n3C)cc1 |  | inactive: 11.8% |
| Cc1ccc(/C=C2\SC(N)=NC2=O)s1 | inconclusive: 39.8 µM [inhibitor, single point] |  |
| COc1cccc(/C=N/NC(=O)c2nc(-c3ccccc3)cc(-c3ccccc3)n2)c1O | active: 12.6 µM |  |
| Cc1ccc(C)c2sc(NC(=O)c3ccc(S(=O)(=O)N4CCCC4)cc3)nc12 | inconclusive: 6.31 µM [activator, single point] |  |
| Cc1ccc(Cn2c(SCC(=O)NCC3CCCO3)nc3c(sc4ccccc43)c2=O)cc1 (stereo not drawn) | inconclusive: 31.6 µM [inhibitor, single point] |  |

| Compound | Potency | max response, negative = inhibition |
| --- | --- | --- |
| COc1ccc(-n2c(C)c(C(C)=O)c3cc(O)ccc32)cc1 | inconclusive: 25.1 µM [inhibitor, single point] |  |
| O=C(c1cc(Cl)cc(Cl)c1)N1CCOCC1 |  | inactive: -1.21% |
| Cc1nn2c(C)c(C(=O)N3CCN(c4ccccc4)CC3)cnc2c1-c1ccccc1 | inconclusive: 31.6 µM [activator, single point] |  |
| Cc1ccc2ncc(C(=O)NCCc3ccc(S(N)(=O)=O)cc3)c(=O)n2c1 |  | inactive: -12.8% |
| COc1ccc(CCNC(=O)COc2ccc(S(=O)(=O)NCC(C)C)cc2Cl)cc1OC | inconclusive: 39.8 µM [activator, single point] |  |
| O=C1NC(=Nc2ccccc2)S/C1=C\c1cccn1-c1ccccc1 | inconclusive: 39.8 µM [inhibitor, single point] |  |
| COc1ccccc1N1CCN(C(=O)c2ccc(CSc3ccccc3)cc2)CC1 | inconclusive: 39.8 µM [activator, single point] |  |
| O=C(COc1ccc2ccccc2c1)Nc1cccc(C(=O)Nc2ccccc2C(=O)O)c1 | inconclusive: 39.8 µM [activator, single point] |  |
| Cc1ccc(N(C)C(=O)Cn2cnc3onc(-c4ccc(F)cc4)c3c2=O)cc1C |  | inactive: 27.3% |
| CCOc1ccc(NC(=O)CSc2nc3c(c(=O)[nH]2)CCCC3)cc1 |  | inactive: -3.01% |
| CCC(C)C(N)C1=NC(C(=O)NC(CC(C)C)C(=O)NC(CCC(=O)O)C(=O)NC(C(=O)NCCCCC2NC(=O)C(CC(N)=O)NC(=O)C(CC(=O)O)NC(=O)C(Cc3cnc[nH]3)NC(=O)C(Cc3ccccc3)NC(=O)C(C(C)CC)NC(=O)C(CCCN)NC2=O)C(C)CC)CS1 (stereo not drawn) | inconclusive: 12.6 µM [activator, single point] |  |
| CCCOc1ccc(CN(C(=O)c2cc(=O)c3ccc(C)cc3o2)C2CCS(=O)(=O)C2)cc1 (stereo not drawn) | inconclusive: 39.8 µM [activator, single point] |  |
| O=C(CN1/C(=C(/O)c2ccccc2)C(=O)c2ccccc2S1(=O)=O)c1ccccc1 | inconclusive: 31.6 µM [inhibitor, single point] |  |
| CCOc1ccccc1CN1CCc2nc(N3CCN(c4ccccc4F)CC3)ncc2C1 |  | inactive: 8.49% |
| O=C(O)CCn1cc(/C=C\C(=O)c2ccc(Cl)cc2)c(-c2cccc(Br)c2)n1 | inconclusive: 6.31 µM [activator, single point] |  |
| COc1ccc(CCNC(=O)c2cc(C)nc3c2c(C)nn3-c2ccc(C)cc2)cc1OC | inconclusive: 39.8 µM [activator, single point] |  |
| COc1ccc(-c2csc(N(Cc3ccccc3)C(=O)COc3ccc(Cl)cc3)n2)cc1 | active: 6.31 µM |  |
| Oc1ccc(Br)cc1C=Nc1ccc2c3c(cccc13)CC2 | inconclusive: 31.6 µM [inhibitor, single point] |  |
| Cc1c(C(=O)NCc2ccco2)oc2ccc(S(=O)(=O)N3CCC4(CC3)OCCO4)cc12 | inconclusive: 39.8 µM [activator, single point] |  |
| COC(=O)c1[nH]c2ccc(Br)cc2c1NC(=O)CN1CCCc2ccccc21 | inconclusive: 39.8 µM [inhibitor, single point] |  |
| CCN(CC)CCCNC(=O)c1ccc2nc(N3CCCCC3)sc2c1 |  | inactive: 13.1% |

| Compound | Potency | max response, negative = inhibition |
| --- | --- | --- |
| CCN1CCN(CCCNC(=O)c2cc3cc4ccc(OC)cc4nc3o2)CC1 | inconclusive: 39.8 µM [inhibitor, single point] |  |
| CCN(CC(=O)NC1CCS(=O)(=O)C1)C(=O)COc1ccccc1-c1ccccc1 (stereo not drawn) | inconclusive: 25.1 µM [activator, single point] |  |
| O=C(Cc1ccc(S(=O)(=O)N2CCCC2)s1)Nc1nc2c(s1)CCCC2 | active: 20 µM |  |
| Cc1cccc(Nc2cc(C)c3c(O)cccc3n2)c1C | inconclusive: 20 µM [inhibitor, single point] |  |
| O=C(c1ccc(CNS(=O)(=O)c2cccc(C(F)(F)F)c2)cc1)N1CCOCC1 | inconclusive: 7.94 µM [activator, single point] |  |
| CCNc1ncc2nc(-c3ccc(F)cc3)c(=O)n(CCc3ccccc3)c2n1 |  | inactive: 3.93% |
| CCN(CC)c1ccccc1 |  | inactive: -5.56% |
| COC(=O)c1sccc1NC(=O)CSc1ccccc1NS(=O)(=O)c1ccc(Br)cc1 | inconclusive: 39.8 µM [inhibitor, single point] |  |
| COc1ccc(Cl)cc1NC(=O)CSc1ncnc2c1oc1ccccc12 | active: 15.8 µM |  |
| O=C(Nc1ccc(-c2noc(CCc3ccccc3)n2)cc1)c1cccnc1 | inconclusive: 39.8 µM [activator, single point] |  |
| Cc1ccc(C)c(CNC(=O)C2CCN(c3nc4ccccc4nc3C(F)(F)F)CC2)c1 |  | inactive: -6.51% |
| Cc1cc(C)c2c(=O)n(CC(=O)N3CCC(N4CCCCC4)CC3)sc2n1 |  | inactive: -5.78% |
| COC(=O)[C@@]1(Cc2ccccc2)[C@@H]2C(=CC(=O)[C@H]2CC(=O)C(=O)N(C)C)CN1C(=O)c1ccccc1 | inconclusive: 31.6 µM [activator, single point] and inconclusive: 39.8 µM [activator, single point] |  |
| O=C(N/N=C/c1cc([N+](=O)[O-])ccc1O)/C(=C\c1cccs1)NC(=O)c1ccccc1 | active: 20 µM |  |
| CC(=O)Nc1cc(CN2CCCCC2)c(O)c2ncccc12 |  | inactive: 1.36% |
| CCc1ccccc1NC(=O)CSc1nnc([C@@H](N)Cc2ccccc2)o1 | active: 10 µM |  |
| Cc1sc2ncnc(Sc3ccccc3C(=O)Nc3ccccc3Cl)c2c1C | inconclusive: 39.8 µM [inhibitor, single point] |  |
| COc1ccc(-c2nc(C)c(CCNC(=O)C(=O)Nc3ccccc3C#N)s2)cc1OC |  | inactive: -8.75% |
| CCOC(=O)C(=CNc1cc(C)nn1-c1ccc(Cl)cc1)C(=O)OCC | inconclusive: 39.8 µM [activator, single point] |  |
| CCCCCn1c(=O)[nH]c2cc(C(=O)NCc3ccco3)ccc2c1=O | inconclusive: 39.8 µM [inhibitor, single point] |  |
| CCC(=O)N1CCN(c2ccccc2NC(=O)COc2cc(C)ccc2C(C)C)CC1 | inconclusive: 25.1 µM [activator, single point] |  |
